Among the data in PubChem BioAssay AID463173 (ICCB-Longwood Screening Facility, Harvard Medical School, 2010) are survival values, retold here.

In all, about 52,000 compounds went through this assay and about 1,700 (3.3%) were called active. Rule as the data show it: active = survival mostly below about 52% (no sharp cut-off); inactive = mostly above about 56%. This is one part of the list.

In this experiment the test system is Wild type. Nature of the experiment: S. aureus survival, RN4220 and DeltatarO strains – OD600, teichoic acid synthesis inhibitors, primary screen (AID 463173). Particulars: S. aureus RN4220 wild type/DeltatarO growth, OD600, 18 h, hits give low values, screened at 18.75 µg/mL (by protocol).
For the molecule `CCc1nnc(NC(=O)c2c(O)c3ccccc3n(C)c2=O)s1`, the survival was inactive: 91%.

With `Cc1nc2ccn(Cc3ccco3)c(=O)c2cc1C(=O)N1CCN(c2ccc(F)cc2)CC1`, the survival is inactive: 131%. As for `COc1cccc(CNC(=O)C(C)n2c(=O)cc(-c3ccccc3)c3c(C)nn(C)c32)c1` (stereo not drawn), the survival is inactive: 82%. The same measure for `CN(Cc1ccccc1)C(=O)CSc1nc(-c2ccc(F)cc2)cc(C(F)(F)F)n1`: active: -4%. With `Cc1ccc(/C=C(\C#N)c2nc3ccccc3c(=O)[nH]2)cc1` the figure was inactive: 86%. The same measure for `O=C(Nc1nnc(S(=O)(=O)N2CCc3ccccc32)s1)c1cccc(Cl)c1`: active: 12%. As for `CCCC(CCC)C(=O)NC1CC(=O)N(c2ccc3c(c2)OCCO3)C1` (stereo not drawn), the survival was inactive: 119%. The same measure for `CCOc1ccc(CC(=O)Nc2c(C(=O)c3ccccc3)oc3ccc(OC)cc23)cc1OCC`: inactive: 74%; for `CCc1ccccc1NC(=O)Cn1c(=O)n(Cc2ccc(OC)cc2)c(=O)c2oc3ccccc3c21`: inactive: 82%; for `CCn1c2ccccc2c2cc(CN3CCN(Cc4ccco4)CC3)ccc21`: inactive: 104%. Consider `COc1ccc(NC(=O)C2CCCN(c3nnc(C)c4c(C)n(-c5ccccc5)nc34)C2)cc1Cl` (stereo not drawn), for which the survival was inactive: 124%. For `CCOC(=O)c1cccc(N2C(=O)C3C(C(=O)NC4CC4)C4(C)C=CC3(O4)C2C(=O)NC(C)(C)C)c1` (stereo not drawn), the survival is inactive: 100%.

On to `COCCOC(=O)c1c(-c2ccccc2)c(-c2ccccc2)nn(C)c1=O`, for which the survival was inactive: 84%.

For the molecule `O=C(CSc1nc(-c2ccc(F)cc2)[nH]c1-c1ccc(F)cc1)Nc1ccc2c(c1)OCCO2`, the survival is inactive: 78%. As for `COc1ccc(Cc2nc3ccc(C(=O)NCc4ccccc4Cl)cc3o2)cc1`, the survival was inactive: 65%. The same measure for `Cc1ccc(NC(=O)CS(=O)CC(=O)Nc2ccc3c(c2)CCC3)cc1` (stereo not drawn): inactive: 107%.

As to `O=C1OC(C(=O)Nc2cc(C(F)(F)F)ccc2Cl)Cc2ccccc21` (stereo not drawn), the survival is inactive: 78%. Consider `Nc1nonc1-n1nnc(CO)c1CO`, for which the survival is inactive: 106%. With `Cc1ccc(C)c(N2CCN(C(=O)c3cnn(-c4ccccc4Cl)c3C3CCN(C(=O)OC(C)(C)C)CC3)CC2)c1` the figure was inactive: 77%.

Regarding `CCc1ccc(NC(=O)C(CC)n2c(=O)c(-c3ccccc3NC(C)=O)nc3ccccc32)cc1` (stereo not drawn), the survival is inactive: 60%. For the molecule `C#CCSc1cccc2cccnc12`, the survival was inactive: 97%. In the case of `CCOc1ccc(CC(=O)NCC(c2cccs2)S(=O)(=O)c2ccc(F)c(C)c2)cc1` (stereo not drawn), the survival was inactive: 80%.

For the molecule `O=C(COc1ccc(Cl)cc1)Nc1ccccc1OCc1cc(=O)n2ccccc2n1`, the survival was inactive: 68%. The same measure for `CCOC(=O)c1c(C)c(-c2ccccc2)n(CC(=O)NC(CC)Cc2ccccc2)c1C` (stereo not drawn): inactive: 122%; for `CCN(CC)c1ccc(NC(=O)C2CCN(S(=O)(=O)c3cnc[nH]3)CC2)c(C)c1`: inactive: 83%. For `Cc1ccc(NC(=O)C2CC(=O)N(c3ccc(OC(C)C)cc3)C2)cc1` (stereo not drawn), the survival is inactive: 89%.

As for `COc1ccccc1N1CCN(C(=O)c2cnn(-c3ccc(F)cc3F)c2C2CCNCC2)CC1`, the survival was active: 0%. With `COc1cccc(C(=O)Nc2ccc3oc(-c4cccc5c(Br)cccc45)nc3c2)c1` the figure was inactive: 101%; with `CCc1ccccc1N(C)C(=O)c1ccc2c(=O)n3c(nc2c1)CCCCC3`, inactive: 65%; with `COc1ccc(S(=O)(=O)NCC(c2ccc(N(C)C)cc2)N2CCc3ccccc32)cc1OC` (stereo not drawn), inactive: 87%. The same measure for `COc1ccc(N2CCN(C(=O)CCc3c(C)nc4cc(-c5ccc(OC)cc5OC)nn4c3C)CC2)cc1`: inactive: 118%. The same measure for `CCOC(=O)c1c(NC(=O)c2ccccc2OCC)sc2c1CCC(CC)C2` (stereo not drawn): active: -1%; for `Cc1cccc(OCC(=O)Nc2cccc3cccnc23)c1C`: inactive: 76%.

For the molecule `CCCOc1ccc(C2C(=O)N(C3CCCCCC3)CC(=O)N2CCC)cc1OC` (stereo not drawn), the survival is active: -6%. The same measure for `CN(C)S(=O)(=O)c1ccc(C(=O)NCCSc2c(-c3ccc(Cl)cc3)[nH]c3ccccc23)cc1`: inactive: 74%; for `Cc1c(C(=O)OC2CCCCCC2)[nH]c2c1C(=O)CC(c1ccc(Cl)cc1)C2` (stereo not drawn): inactive: 128%; for `Cc1ccc2c(c1)C(=O)OC(C(=O)Nc1ncc(Cc3ccc(Cl)cc3)s1)C2` (stereo not drawn): inactive: 77%. With `COC(=O)C1=C(C)NC(C)=C(C(=O)OC)C1c1cc2ccc(OC)cc2[nH]c1=O` the figure was inactive: 114%. The same measure for `CCOc1ccc(NC(=O)NCc2cccn2Cc2ccccc2)cc1`: inactive: 64%; for `O=C(c1ccc2c(c1)CCN2S(=O)(=O)c1ccc(Cl)cc1)N1CCN(c2ccc(F)cc2)CC1`: inactive: 80%; for `Cc1cccc(C)c1-n1ncc(C(=O)NC2CCCC2)c1C1CCN(C(=O)OC(C)(C)C)CC1`: inactive: 73%. For `O=C(CSc1ccccn1)N1CCc2ccccc21`, the survival is inactive: 106%. The same measure for `O=C(COc1ccc(Cl)cc1Cl)Nc1cccc2cccnc12`: inactive: 67%; for `N#CC1=C(N)c2ccccc2CC12CCCCC2`: inactive: 126%; for `CC(C)(SC1CC(=O)N(c2ccccc2)C1=O)C(N)C(=O)O` (stereo not drawn): inactive: 80%.

For `COc1ccc(OC)c(NC(=O)CSc2nnc(CNc3ccc(C)cc3C)n2CC2CCCO2)c1` (stereo not drawn), the survival is inactive: 124%.

As to `CC(=O)N1CCC(N(Cc2ccco2)C(=O)Nc2ccc(C)c(Cl)c2)CC1`, the survival was inactive: 121%. With `Cc1ccc2[nH]c3c(=O)n(CC(=O)N(CCN(C)C)Cc4ccccc4)ncc3c2c1` the figure was inactive: 99%. Regarding `Cc1ccc2oc(-c3ccc(C)c(NC(=O)/C=C/c4ccc(Cl)cc4)c3)nc2c1`, the survival was inactive: 79%. The same measure for `COc1ccc(Nc2c(-c3ccc(C)o3)nc3cc(C)ccn23)cc1`: inactive: 69%; for `Cc1cc(C)cc(NC(=O)Cn2cc(C(=O)c3cccs3)c3ccccc32)c1`: inactive: 81%.

As to `CCOC(=O)CNC(=O)N1[C@H](c2cccs2)[C@@H](C)C(=O)[C@@H](C)[C@@H]1c1cccs1`, the survival was inactive: 81%.

In the case of `C/C(=N\NC(=O)CNc1ccccc1)c1ccccc1`, the survival was inactive: 113%. Turning to `Cc1ccc(CNC(=O)c2ccc(CN3CC(=O)N4CCCCC4C3=O)cc2)cc1` (stereo not drawn), the survival was inactive: 75%.

Regarding `CCOc1ccc(N2CC(NC(=O)C3CCCCC3)CC2=O)cc1` (stereo not drawn), the survival was inactive: 63%. As for `COc1cc(NC(=O)c2nc3nc(C)cc(C(F)F)n3n2)c(OC)cc1Cl`, the survival is inactive: 67%. With `CCc1nnc(NC(=O)c2nc(SCc3ccccc3F)ncc2Cl)s1` the figure was inactive: 66%. On to `CCCCOc1ccc(Cn2c(=O)oc3ccc(C)cc32)cc1OC`, for which the survival was inactive: 49%. The same measure for `COc1ccc2c(c1)c(=O)c(C(=O)c1ccc(F)cc1)cn2CC(=O)Nc1ccc2c(c1)OCO2`: inactive: 91%; for `CCc1c(C)nc2nncn2c1NCc1ccccc1`: inactive: 86%; for `COc1ccc(S(=O)(=O)N2CCN(c3cccc(C)c3C)CC2)c2ccccc12`: inactive: 130%. Consider `O=S1(=O)c2ccccc2N(Cc2ccc(Cl)cc2)c2ccccc21`, for which the survival was inactive: 129%. The same measure for `Cc1ccc(S(=O)(=O)N(CC(=O)NCCSc2ccc(Cl)cc2)c2ccccc2C)cc1`: inactive: 82%. The same measure for `O=C(CCCCCn1c(=O)c2sccc2n(Cc2ccc(Cl)cc2)c1=O)NCc1ccc2c(c1)OCO2`: inactive: 86%; for `Cc1ccc(NC(=O)C2CCN(c3nnc(C)c4c(C)n(-c5ccccc5)nc34)CC2)c(Cl)c1`: inactive: 127%. Turning to `CC(C)CCNC(=O)Cn1c(-c2cccs2)cc2cc(F)ccc21`, the survival was inactive: 71%. With `Cc1cc(Br)ccc1NC(=O)c1sc2nc3n(c(=O)c2c1C)CCCC3`, the survival was inactive: 81%. With `COc1ccc(Cl)cc1C(=O)Nc1nnc2n1CCS2` the figure was inactive: 83%. Regarding `O=C(NCCc1ccc(Cl)cc1)c1ccc2c(c1)N(Cc1ccc(Cl)cc1)C(=O)CS2`, the survival was inactive: 98%. For the molecule `C=Cc1ccc(Cn2c(=O)n(-c3cccc(Cl)c3)c(=O)c3c4c(sc32)CN(C(C)=O)CC4)cc1`, the survival is inactive: 81%. With `CCN(Cc1ccccc1)Cc1c(O)ccc2oc(C)c(C(=O)Nc3ccc(C)cc3C)c12` the figure was inactive: 72%; with `COCCCNC(=O)CCn1c(=O)c2ccccc2n(CC(=O)Nc2cc(Cl)ccc2OC)c1=O`, inactive: 83%.

Turning to `Cc1cccc(N2CCn3c2nc2c3c(=O)n(C/C=C/c3ccccc3)c(=O)n2C)c1`, the survival is inactive: 84%. With `CCCCN(CC)c1nc(-c2ccccc2F)nc2ccccc12` the figure was inactive: 71%.

As for `O=C(Nc1ccccc1C(=O)N1CCOCC1)C1COc2ccccc2O1` (stereo not drawn), the survival is inactive: 105%. The same measure for `S=C1NC2=C(CCCC2)C2(CCCCC2)N1`: inactive: 90%; for `CN1C(C(=O)Nc2cccc(O)c2)=CC(c2ccco2)=NS1(=O)=O`: inactive: 86%.

`Cc1cc(C)c(NC(=O)Cn2nnc(S(=O)(=O)c3ccc(C)c(C)c3)c2N)c(C)c1`: the survival was inactive: 99%. The same measure for `CC(C)c1ccc(NC(=O)N2c3ccccc3Sc3ccccc32)cc1`: active: 5%. The same measure for `COc1ccc(-c2cc(C(=O)N3CCN(c4ccccc4)CC3)no2)cc1`: active: 16%. `CCN(CC)S(=O)(=O)c1ccc2c(c1)c(=O)c(C(=O)N1CCN(c3cccc(Cl)c3)CC1)cn2C`: the survival is inactive: 91%.

In the case of `CCOc1ccccc1CNC(=O)C1CCN(c2nc3ccccc3nc2C(F)(F)F)CC1`, the survival was inactive: 73%. The same measure for `COc1ccc(-c2n[nH]c3c2cnc2cc(OC)c(OC)cc23)cc1`: inactive: 88%; for `CCc1ccc(C(=O)c2cn(CC(=O)Nc3ccc4c(c3)OCO4)c3ccc(F)cc3c2=O)cc1`: inactive: 85%. With `Cn1c(=O)oc2cc(S(=O)(=O)NC(Cc3ccccc3)C(=O)NCc3ccccc3Cl)ccc21` (stereo not drawn) the figure was inactive: 144%; with `COc1cc(OC)c(NC(=O)c2ccc3c(c2)N(Cc2ccc(C)cc2)CCS3)cc1Cl`, inactive: 89%. The same measure for `Cc1cccc(C2N=C(N)Nc3nc4ccccc4n32)c1` (stereo not drawn): inactive: 125%; for `Cc1ccc(CSC2=Nc3ccccc3C3=NC(CC(=O)NCc4ccc5c(c4)OCO5)C(=O)N23)cc1` (stereo not drawn): inactive: 74%.
